# PubChem BioAssay AID488969 (Vanderbilt High Throughput Screening Facility, 2010)
# The full ranking holds about 110,000 compounds; the median of “z-score” is about -0.1, and the highest 2% start at about 2. This is one part of the list.
# Target: Metabotropic glutamate receptor 8 (Rattus norvegicus) (UniProt P70579)
# Assay: rat mGluR8 modulators via GIRK flux, primary screen, cell-based, thallium flux, HTS (AID 488969)
# Settings: HEK293 rat mGluR8, GIRK (G protein-gated inwardly rectifying potassium channel) thallium flux, FluoZin2; at 10 µM; stronger effect = higher value; submaximal glutamate (EC20) added with thallium
# Chain of UniProt P70579 (P70579 whole entry, looked up): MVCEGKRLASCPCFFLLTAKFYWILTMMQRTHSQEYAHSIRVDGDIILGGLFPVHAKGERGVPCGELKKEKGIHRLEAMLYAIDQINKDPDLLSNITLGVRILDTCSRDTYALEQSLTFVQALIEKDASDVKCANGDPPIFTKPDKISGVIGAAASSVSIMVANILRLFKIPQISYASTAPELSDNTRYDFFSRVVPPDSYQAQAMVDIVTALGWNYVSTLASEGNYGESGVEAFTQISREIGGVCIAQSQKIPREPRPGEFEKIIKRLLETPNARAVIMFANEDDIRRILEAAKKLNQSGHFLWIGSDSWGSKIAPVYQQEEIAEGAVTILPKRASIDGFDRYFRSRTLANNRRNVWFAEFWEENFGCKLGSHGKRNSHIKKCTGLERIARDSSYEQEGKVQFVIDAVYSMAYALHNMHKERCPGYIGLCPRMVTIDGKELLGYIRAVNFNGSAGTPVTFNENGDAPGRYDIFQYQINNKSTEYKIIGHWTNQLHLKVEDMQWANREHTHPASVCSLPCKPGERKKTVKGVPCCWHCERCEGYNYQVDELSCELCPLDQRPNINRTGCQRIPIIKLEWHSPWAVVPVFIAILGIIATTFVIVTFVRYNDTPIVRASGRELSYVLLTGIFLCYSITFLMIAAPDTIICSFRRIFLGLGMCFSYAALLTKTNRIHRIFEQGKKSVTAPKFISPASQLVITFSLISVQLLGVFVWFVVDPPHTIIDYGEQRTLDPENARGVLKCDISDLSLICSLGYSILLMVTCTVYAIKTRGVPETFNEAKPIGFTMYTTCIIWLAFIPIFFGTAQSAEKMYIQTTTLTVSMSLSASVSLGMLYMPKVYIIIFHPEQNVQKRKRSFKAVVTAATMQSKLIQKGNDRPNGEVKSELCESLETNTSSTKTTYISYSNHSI
row,SMILES,z-score
1,COC(=O)c1sc2ccccc2c1NC(=O)c1ccc(S(=O)(=O)N2CCCCC2)cc1,-0.105
2,Cc1cc[n+](-c2nc([O-])n(-c3ccccc3)c2C=O)cc1,0.651
3,Cc1ccc(C(=O)CSc2nc3cccnc3n2C)cc1,-1.01
4,COC(=O)C(C)N(C(=O)c1cccc2ccccc12)c1c(C)cccc1C (configuration not stated),-1.36
5,C=CCOc1ccc(/C(O)=C2\C(=O)C(=O)N(CCCOC)C2c2ccc(O)c(OC)c2)cc1 (configuration not stated),-0.44
6,COc1ccc(NC(=O)CN2CCCCC2)cc1,0.473
7,O=C(C(c1ccccc1)N1CCOCC1)N1CCOCC1 (configuration not stated),-0.177
8,COc1cc(/C=N/NC(=O)C(=O)NCC2CCCO2)ccc1O (configuration not stated),0.158
9,CC/C(=N/Nc1ccccc1)c1cnnc(SC)n1,-0.222
10,Cc1cccc(NC(=O)COC(=O)c2ccccc2-c2nc3ccccc3s2)c1C,-0.272
11,Cc1ccc(N2C(=O)c3ccccc3C2=O)cc1C,-0.283
12,Cn1nnnc1SCC(=O)c1ccco1,0.0313
13,Cn1c(-c2ccc(Br)cc2)cnc1NCc1cccnc1,-0.358
14,CCCCNc1nc(CC)c2c(c1C#N)CCCC2,-0.796
15,COc1ccc(-c2nnc(SCC(=O)NCc3ccco3)o2)cc1,0.651
16,CCOC(=O)CNc1ccc2c(c1)OCO2,-0.395
17,CN(CC(=O)N1CCCc2c1c(=O)oc1ccc(O)cc21)Cc1ccccc1,-0.0903
18,CCN1C(=O)C(CC(=O)NC2CCCCC2)N(CC)C1=O (configuration not stated),-0.508
19,O=C(Nc1ccc(Cl)cn1)c1cc2ccccc2o1,-0.372
20,CC1(C)CC(=O)c2sc(NC(=O)CN3C(=O)CCC3=O)nc2C1,2.59
21,CC1=C(C(=O)OC2CCCCC2)C(c2ccco2)C2=C(CC(C)(C)CC2=O)N1 (configuration not stated),0.0288
22,O=C(NC1CCCC1)C(c1ccsc1)N(C(=O)Cc1cccs1)c1ccccc1 (configuration not stated),0.427
23,O=C(N/N=C/c1ccc(-c2cccc(C(F)(F)F)c2)o1)c1ccccc1Br,-0.459

row,SMILES,z-score
1,CCOC(=O)c1cnn(-c2ccccc2)c1-c1ccccc1,-0.214
2,Cc1cccc(OCCn2c(NC(=O)c3ccco3)nc3ccccc32)c1,1.66
3,CC(C)(C)c1nnc(NC(=O)Cc2ccc(Br)cc2)s1,0.693
4,O=C(CSc1ncn(-c2ccccc2)n1)Nc1nc2ccccc2s1,-0.407
5,CCOC(=O)c1cnc(SCC(=O)N2CCN(c3ccccc3)CC2)nc1N,-0.108
6,CC(=O)Nc1cccc(/C(C)=N\NC(=O)c2ccc(Cn3nc([N+](=O)[O-])c(Cl)c3C)o2)c1,-0.798
7,O=C(Nc1cc(N2CCOCC2)ncn1)NC1(C(F)(F)F)Oc2ccc(Cl)cc2O1 (configuration not stated),0.375
8,S=c1[nH]nc(-c2ccco2)n1-c1cccc2ccccc12,-0.398
9,CSc1[nH]c(=O)c(C(=O)O)cc1C#N,-0.112
10,Cc1ccc(-n2c(C)cn(C(=O)c3ccccc3)c2=S)cc1,-0.117
11,CCOC(=O)c1c(NC(=O)Cn2nnc(-c3ccccc3Cl)n2)sc(C)c1C,-0.105
12,COC(=O)CCN(C(=O)c1ccc2c(c1)OCO2)c1ccccn1,0.0413
13,CC(=O)N1CCc2cc(C(=O)CN3CCN(c4ccccc4F)CC3)ccc21,-0.32
14,CCC(=O)N1c2ccccc2NC2=C(C(=O)CCC2)C1c1ccccc1 (configuration not stated),-0.398
15,CCOC(=O)c1ccc2[nH]c(C)c(CCC(C)=O)c(=O)c2c1,0.552
16,COc1cccc(CN2CCC(N(CCc3ccccc3)Cc3ccccc3)CC2)c1OC,-0.082
17,O=C(NC1(C(F)(F)F)N=C2SCCN2C1=O)c1ccccc1 (configuration not stated),-0.628
18,CCOc1ccccc1N1C(=O)c2cccnc2C1=O,0.744
19,Cc1ccc2c(c1)CCCN2C(=O)C1CCCO1 (configuration not stated),0.0129
20,Cc1cc(C)cc(N(C(C)C(=O)NCCC2=CCCCC2)S(C)(=O)=O)c1 (configuration not stated),0.122
21,CCOc1ccccc1NC(=O)CC1NCCNC1=O (configuration not stated),-0.495
22,Cc1ccc(NC(=O)CS(=O)CC(=O)N(c2ccc(C)cc2)C(C)C(=O)NC2CCCCC2)cc1 (configuration not stated),-0.276
23,OCCSc1c(F)c(SCCO)c(SCCO)c(F)c1SCCO,0.711

row,SMILES,z-score
1,Cn1c(O)c(C=NC(CC(N)=O)C(=O)O)c(=O)n(C)c1=O (configuration not stated),0.259
2,O=C(Oc1ccc2ccccc2c1Cl)N1CCCCCC1,-0.207
3,COc1ccc(N2CCN(S(=O)(=O)c3cccc4nsnc34)CC2)cc1,-0.213
4,O=C1C2CCCN2C(=O)N1CCN1CCN(c2ccccc2)CC1 (configuration not stated),-0.0541
5,COc1ccc(CSCC(=O)N/N=C/c2ccccc2OCc2ccccc2)cc1,1.27
6,Cn1c(SCc2nc3ccccc3s2)nnc1-c1ccc2c(c1)OCO2,-0.882
7,CCC(C)NC(=O)C1CCN(C(=O)c2ccccc2)CC1 (configuration not stated),0.537
8,CC(=O)N1CCc2cc(S(=O)(=O)NC(CC(C)C)C(=O)N3CCn4c3nc3ccccc34)ccc21 (configuration not stated),-0.0969
9,Cc1cc(Cl)ccc1NC(=S)NCc1cccs1,0.0494
10,O=C(c1sc2ccccc2c1Cl)N1CCN(c2ncccn2)CC1,-0.0901
11,Cn1c(=O)oc2cc(S(=O)(=O)N3CCCC(C(=O)N4CCc5ccccc5C4)C3)ccc21 (configuration not stated),0.0668
12,COc1ccccc1N1CCN(/N=C/C=C\c2ccco2)CC1,-0.216
13,CC(C)(C)c1[nH]nc2c1C(c1cccnc1)C(C#N)=C(N)O2 (configuration not stated),0.285
14,Cc1nc2c3cnn(-c4ccccc4)c3ncn2n1,-0.201
15,CN(C)c1ccc(C(CNC(=O)c2ccccc2F)c2c[nH]c3ccccc23)cc1 (configuration not stated),0.0357
16,Cc1ccc2nc(/C(C#N)=C\c3ccc(N4CCOCC4)o3)[nH]c2c1,-1.6
17,COc1ccc(-c2cc(C(=O)Nc3cc(C)nn3-c3ccccc3)no2)cc1,-0.523
18,COC(=O)[C@H](C)NC(=O)NC(C)CCc1ccccc1 (some centres not stated),-0.368
19,O=C(c1ccccc1)C(Sc1ncn[nH]1)c1ccccc1 (configuration not stated),-0.672
20,COc1ccc(OC)c(NC(=O)CCN2CCCCC2)c1,-0.459
21,Cc1ccc(C(=O)Nc2ccccc2C(=O)NCc2ccco2)cc1S(=O)(=O)N1CCCCC1,-0.376
22,NC(=O)c1ccc(-n2nc(C(F)(F)F)c3c2CCCC3)cc1,-0.0342
23,COC(=O)c1ccccc1NC(=O)Cn1cnc2c(cnn2-c2ccc(C)c(C)c2)c1=O,1.51

row,SMILES,z-score
1,CC(=O)Nc1ccc(NC(=O)CSc2nnc(-c3ccco3)n2Cc2ccco2)cc1,-0.443
2,COc1ccc(NC(=O)COC(=O)/C=C/C(=O)OCC(=O)Nc2ccc(OC)c(Cl)c2)cc1Cl,-0.209
3,O=C(NNC(=O)C1CCN(Cc2ccccc2)CC1)c1cccc(Cl)c1,0.0829
4,Cc1ccc(C(C)C)c(OCc2nnc(SCC(=O)Nc3nccs3)n2C)c1,0.133
5,CC1(C)CC(=O)C=C(NC2CCS(=O)(=O)C2)C1 (configuration not stated),0.134
6,Cc1oc(-c2ccc(Cl)cc2)nc1CN1CCC(C(=O)NCCCN2CCCC2=O)CC1,-0.893
7,OCCNc1nc2ccc(Cl)cc2[nH]1,-0.829
8,CCc1ccc(NC(=O)Cc2ccc(-n3cccc3)cc2)cc1,-0.068
9,CCC[C@@H](NS(=O)(=O)c1ccc(C)cc1)C(=O)Oc1ccc2c3c(c(=O)oc2c1)CCC3,-0.365
10,O=C(CSCc1ccc(Cl)cc1)Nc1ccccc1C(=O)N1CCOCC1,-0.0696
11,Nc1nc(SCc2ccccc2Cl)ns1,0.317
12,CCOC(=O)c1c(C)n(C)c2ccc(OC(=O)c3ccoc3)cc12,0.225
13,COc1cc(NC(=O)c2ccccc2Cl)ccc1NC(=O)c1ccco1,-0.115
14,Cc1ccc2c(Cl)cc(Cl)c(OCC(=O)Nc3ccc(C)c(S(=O)(=O)N(C)C)c3)c2n1,2.31
15,Cc1cc(N2CCOCC2)nc2ccc(NC(=O)CCC(=O)N3CCCC(C)C3)cc12 (configuration not stated),2.7
16,CC(C)(C)c1cc(CN(CCO)CCO)cc(C(C)(C)C)c1O,0.0504
17,COc1ccc(Cl)cc1NC(=O)C(C)N(C)Cc1cccc(Cl)c1Cl (configuration not stated),-0.242
18,O=C(NCC1CCCO1)C1CCC(=O)N1CCc1ccccc1 (configuration not stated),0.182
19,Cc1cc(C)cc(N(CC(=O)N2CCC(C)CC2)S(C)(=O)=O)c1,0.413
20,COc1cccc(NS(=O)(=O)CC23CCC(CC2=O)C3(C)C)c1 (configuration not stated),-0.22
21,COc1cc(CCC(=O)Nc2cccc(S(=O)(=O)N(C)C)c2)cc(OC)c1OC,0.738
22,COc1ccc(CCNC(=O)CN2CCN(Cc3ccc(F)cc3)C2=O)cc1OC,-0.0649
23,Cc1cc([N+](=O)[O-])ccc1NCc1ccc2ccccc2c1,0.663

row,SMILES,z-score
1,CCn1c2ccccc2c2cc(NC(=S)N3CCOCC3)ccc21,-0.0615
2,Oc1ccccc1-c1n[nH]c(=S)n1Cc1ccco1,-0.0896
3,Cc1cc(NCc2ccco2)n2c(nc3ccccc32)c1C#N,-0.413
4,COCCCNC(=O)C(C#N)c1nc2ccccc2nc1N1CCCC1 (configuration not stated),-0.459
5,N/C(=N\OC(=O)CCC1CCCCC1)c1ccccn1,0.237
6,Cc1ccc(S(=O)(=O)NNc2nc3ccccc3nc2C(F)(F)F)cc1,-0.286
7,Cc1ccc(-n2c(C)cc(C)c(C#N)c2=O)cc1Cl,-0.024
8,O=C(CSc1nc2ccccc2[nH]1)NCc1ccc2c(c1)OCO2,0.0474
9,Cc1onc(-c2c(F)cccc2Cl)c1C(=O)NCc1cccs1,-0.0942
10,Cc1ccc2nc(-c3ccncc3)c(Nc3ccccc3)n2c1,-0.0153
11,CCNC(=O)CSc1nnc(-c2ccccc2)n1-c1ccc(OCC)cc1,-0.191
12,CCc1ccc2c(COn3nnc4ccc(S(=O)(=O)N(C)C)cc43)cc(=O)oc2c1,0.082
13,COc1ccc(C2C(C#N)=C(N)Oc3n[nH]c(C)c32)cc1Cn1nc(C)c([N+](=O)[O-])c1C (configuration not stated),-0.191
14,O=C(Nc1ccc(Cl)c(-c2nc3ccccc3[nH]2)c1)c1cccnc1,-0.295
15,CCSc1nnc(NS(=O)(=O)c2ccc(C)cc2)s1,-0.295
16,CCCCOC(=O)Nc1cc(Cl)ccc1C,-0.15
17,CC(C)OP(=O)(OC(C)C)C(NC(=O)c1cccc([N+](=O)[O-])c1)C(N)=O (configuration not stated),0.00819
18,COc1ccc(OC)c(C2CC(=O)NC(SC)=C2C#N)c1 (configuration not stated),0.894
19,O=C(N/N=C/c1ccco1)c1ccccn1,-0.78
20,COc1cc2[nH]c(=S)n(NC(=O)c3ccccc3)c(=O)c2cc1OC,-0.0244
